Experimental data reported in the DeepSol protein solubility set.

Experiment: soluble on expression in E. coli; label from the status in PepcDB or PDB records

Substance: MGSDKIHHHHHHMAAPVVAPPGVVVSRANKRSGAGPGGSGGGGARGAEEEPPPPLQAVLVADSFDRRFFPISKDQPRVLLPLANVALIDYTLEFLTATGVQETFVFCCWKAAQIKEHLLKSKWCRPTSLNVVRIITSELYRSLGDVLRDVDAKALVRSDFLLVYGDVISNINITRALEEHRLRRKLEKNVSVMTMIFKESSPSHPTRCHEDNVVVAVDSTTNRVLHFQKTQGLRRFAFPLSLFQGSSDGVEVRYDLLDCHISICSPQVAQLFTDNFDYQTRDDFVR[gap - about 20 residues]VSNLHMYSAVCADVIRRWVYPLTPEANFTDSTTQSCTHSRHNIYRGPEVSLGHGSILEENVLLGSGTVIGSNCFITNSVIGPGCHIGDNVVLDQTYLWQGVRVAAGAQIHQSLLCDNAEVKERVTLKPRSVLTSQVVVGPNITLPEGSVISLHPPDAEEDEDDGEFSDDSGADQEKDKVKMKGYNPAEVGAAGKGYLWKAAGMNMEEEEELQQNLWGLKINMEEESESESEQSMDSEEPDSRGGSPQMDDIKVFQNEVLGTLQRGKEENISCDNLVLEINSLKYAYNVSLKEVMQVLSHVVLEFPLQQMDSPLDSSRYCALLLPLLKAWSPVFRNYIKRAADHLEALAAIEDFFLEHEALGISMAKVLMAFYQLEILAEETILSWFSQRDTTDKGQQLRKNQQLQRFIQWLKEAEEESSEDD
- soluble on expression in E. coli: not soluble
